From the supplement of paper PMC11417369
Some of the results follow.

System: PfAP2-HC AP2 domain (GST-tagged)
Experiment: gcPBM binding intensity (ln(normalized median fluorescence intensity)); higher = stronger DNA binding
Outline: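 Each value is the highest Masliner-normalised natural-log median intensity across replicate spots of either orientation of a probe. The probes were primer-extended double-stranded 36-bp intergenic genomic sequences on an Agilent 4 × 180k array, alongside negative controls, exposed for 1 h to GST-tagged P. falciparum DNA-binding domains expressed in E. coli. Bound protein was picked up with Alexa488 anti-GST antibody and scanned at 488 nm.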

Sequence | gcPBM binding intensity (ln)
TGTATAAATATATGCACACATATATATATTTATATA [CACACA_site3473] | 9.63
TCAATAAATGAATATGCATGCACGCTCTTTAGAGAT [TGCATGCA_site553] | 9.66
GAGAAAAAAAAAAAAAAACACACGGTACATTCAAAG [CACACA_site1767] | 9.71
TAATTCGCATTTTATACACACATTCGAACCTTTTTT [CACACA_site7549] | 10.2
AAATTAATACATTATTGTACTTTTCATGTGCAGAAA [XGTACX_site8284] | 9.46
CATATTACATTAAATTGTACATATATATATATATAT [XGTACX_site3295] | 9.76
CGGATGAATATATATGCACACATCTTTTGTAAAAAT [CACACA_site3190] | 9.76
AAAAATTAAAAGAAAATACACACCTGTGGGTGCTTA [CACACA_site1988] | 9.57
TTATATAGGCAGATGGTGCATCTATTTATAAGCAAC | 9.51
TATTTTTTTTGTTAGGTGCATTTACATTTATTTTTA | 9.74
TGTATGTATTTTCAATGTACATAAAAAAAAAAAAAA [XGTACX_site4397] | 9.4
AAAAAAAAAAGTTCTACACACACAAAAAAATATTTT [CACACA_site8725] | 10.1
ATATGAGAGAATAAAACACACAAAAAAAAAAAAAAA [CACACA_site2865] | 9.46
TAATAATCAAGTTAACGTACAAAATCATCTATAGAA [XGTACX_site5921] | 9.64
GTAGCCTTTCTTTATAAAGGCAAACAAACAAAAAAT [CACACA_negctrl_site1491] | 9.36
TTTTTAAAACATATCACACATATATATATATATATA [CACACA_site5991] | 9.52
TATTTTTATAAAAATCGTACAAGTGATCCAATTTTT [XGTACX_site4402] | 9.54
CCGTATTCAAAAAGGAGTACACAATTATATGTTATA [XGTACX_site641] | 9.43
TATAATATAATTAAAAGTACTTAAAAAAGAATGAAA [XGTACX_site1157] | 9.71

Sequence | gcPBM binding intensity (ln)
TGTTTATATAATATTCTACACACCAACAACAAACAT [CACACA_site8087] | 10.4
CGCGCACCCAGACACACACACACACCGATATATATA [CACACA_site8687] | 10.9
AAAAAAAAAAAAAGTACACACTTATAAAATATTATG [CACACA_site4639] | 9.69
TAAATTATCTTTTTATGTACTTATTTTTATTATTTT [XGTACX_site3158] | 9.73
TATTTTCAACATATTTGTACATATTTTATATTTTAA [XGTACX_site101] | 9.71
GTTATACTCATATATACACACATATGTAAATATATA [CACACA_site5764] | 9.75
ATATAAATAATGTTGACACACACAATAATCTTATTA [CACACA_site9197] | 9.99
AAAATATGGATTCATGATATTAAATTTAATTTAATG [XGTACX_negctrl_site214] | 9.29
ATTATATTAGGTAATCAGTTAAATGTTTCCTTTTTA [CACACA_negctrl_site1229] | 9.53
ATACGAAAAAAAAAAAGTACACAAAAATATCTACAT [XGTACX_site2051] | 9.78
TTTATATAATTTTGTGGTACTTATGTGTGTATATTA [XGTACX_site706] | 10
ATTTATTATATATACACACATACATATATATATATA [CACACA_site2159] | 9.82
ATAACAAAATAAAACACACACACAAATGTACTTATA [CACACA_site8768] | 10.5
TGCTTTTATTTCTTCACACATATGTAAAAAAAAGAA [CACACA_site5906] | 9.33
AAAAAATTCTGGTACTGTACACATTTTTTTAAATTT [XGTACX_site6904] | 9.63
TGCATACTAGCCAATTGTACATAATTTTATTTTAAA [XGTACX_site513] | 9.43
ATTATGATTTTATAGAACTGAACATTTACATTAAAT [GTGCAC_negctrl_site192] | 9.55
AAAATAAATCTGAATGGGGTATAATATATCTTTGTT [CACACA_negctrl_site744] | 9.68
AAAAGGAACAGACACACACACATATATATATATATA [CACACA_site3587] | 10.8

Sequence | gcPBM binding intensity (ln)
CTCAAATAATTTTTTACACACATTATTTGAAATAAG [CACACA_site1290] | 9.57
ATGCTTTTATAAATAATTAAAAAAAAAAAAAAAAAA [TGCATGCA_negctrl_site533] | 8.86
TTTTTTTTTAATATTTGTACACAACATGAAACATTT [XGTACX_site473] | 9.73
GTAATATATACAAAATGTACAAAACAATAACATGAT [XGTACX_site8575] | 10
ATCCAAACAAATAAAACATGCATAATATATATATAT [TGCATGCA_site766] | 9.73
TAAAATATTACGTGTACACATAAATAAAAATAAAAA [CACACA_site5066] | 9.95
TTTTATATTCCACAAAAAATTATATAATAATAGAAC [CACACA_negctrl_site1741] | 9.28
TATACATATGAAAATACACACATACATACCTATATA [CACACA_site6888] | 9.96
TATTTAACACCTTATACACACTTTCTTCCTTTTTTA [CACACA_site4590] | 10.1
TAATTGTACGCCAATACACACAGAATTATAATGTAG [CACACA_site6201] | 9.87
ATGCACTCATTGTGCACACGCATATTACGAAAAGAA [CACACA_site2638] | 9.86
AAAAAAAAAAAAAACACACACACACCCATACAAAAT [CACACA_site1446] | 11.6
AAGATTTGAAAAAATACACACAATAAAAAAATAAAA [CACACA_site3281] | 10.1
TATATATATATGTGTATACACACCTGATAAAGGTAT [CACACA_site2653] | 10.2
AATAAATAAAAAACATGTACAAATATAATATAGCAT [XGTACX_site6429] | 10
AAAAAAAAAAAGCACACACACATATGTGTATTTATA [CACACA_site6578] | 10.3
ACAAAATATACAAAATGTACAAAATTTACAAAATGT [XGTACX_site3544] | 9.71
TACTAGCAAATACATACACACACACCCATATACATA [CACACA_site9163] | 10.4
GATATTGAGAAAGGGTGTACAAGATATTATACTATA [XGTACX_site3598] | 9.93
